No constants are given. Whether binding was seen depends on the method and setting. For some assays here: Binding seen in cells or lysates may run through a third protein. Some entries that bind do so weakly or less than the wild type. Values belong to the molecule of their own block, whether it stands above or below them.
Experiments:
[1] = target: mammalian Diaphanous1 (mDia1), endogenous (mouse (endogenous in C2C12)) (UniProt O08808); test: co-IP; endogenous proteins, C2C12 myotubes in differentiation medium (D24, D72); IP with anti-mDia1 or anti-Phb2 antibody, western blot
[2] = target: flag-tagged Phb2 120-232 (120-232 aa) (mouse) (UniProt O35129); test: co-IP; HEK293T co-transfected with flag-tagged Phb2 construct and GFP-tagged mDia1 construct; IP with anti-flag antibody, blot with anti-GFP
[3] = target: flag-tagged Phb2-Central (140-244 aa) (mouse) (UniProt O35129); test: as above
[4] = target: flag-tagged Phb2-Carboxy (180-299 aa) (mouse) (UniProt O35129); test: as above
[5] = target: flag-tagged Phb2-Y2H (aa 89-299) (mouse) (UniProt O35129); test: as above
[6] = target: flag-tagged Phb2-Amino (89-180 aa) (mouse) (UniProt O35129); test: as above
[7] = target: mammalian Diaphanous1 (mDia1), endogenous (mouse (endogenous in C2C12)) (UniProt O08808); test: co-IP; endogenous proteins, proliferating C2C12 myoblasts in growth medium (GM); IP with anti-mDia1 or anti-Phb2 antibody, western blot
[8] = target: mDia1ΔN3 fused to GAL4 DNA-binding domain (mouse) (UniProt O08808); test: two-hybrid; mDia1ΔN3-BD (pGBKT7) as bait, mouse embryonic cDNA library in pACT2 as prey, S. cerevisiae PJ69-4A; ADE2 and LacZ reporters; positive clones re-tested by hybrid reconstitution against empty pGBKT7
[9] = target: mammalian Diaphanous1 (mDia1), endogenous (mouse (endogenous in C2C12)) (UniProt O08808); test: co-IP; cytoplasmic extract of D72 C2C12 myotubes; IP with anti-mDia1 antibody, blot for Phb2
[10] = target: Prohibitin2 (Phb2), endogenous (mouse (endogenous in C2C12)) (UniProt O35129); test: co-IP; endogenous proteins, C2C12 myotubes in differentiation medium (D24, D72); IP with anti-mDia1 or anti-Phb2 antibody, western blot
[11] = target: Prohibitin2 (Phb2), endogenous (mouse (endogenous in C2C12)) (UniProt O35129); test: co-IP; endogenous proteins, proliferating C2C12 myoblasts in growth medium (GM); IP with anti-mDia1 or anti-Phb2 antibody, western blot
[12] = target: mammalian Diaphanous1 (mDia1), endogenous (mouse (endogenous in C2C12)) (UniProt O08808); test: co-IP; endogenous proteins, C2C12 myotubes in differentiation medium (D24, D72); IP with anti-mDia1 or anti-Phb2 antibody, western blot; remark: listed apart in the source

Sequences of proteins named here, by UniProt entry; tags and fusion partners are left off. A change or cut given only in a name is not applied to a line headed by its entry. A line that says so, or that is headed by a name, gives the form on record, which may keep a tag or linker. Residues count along the entry.
UniProt O08808: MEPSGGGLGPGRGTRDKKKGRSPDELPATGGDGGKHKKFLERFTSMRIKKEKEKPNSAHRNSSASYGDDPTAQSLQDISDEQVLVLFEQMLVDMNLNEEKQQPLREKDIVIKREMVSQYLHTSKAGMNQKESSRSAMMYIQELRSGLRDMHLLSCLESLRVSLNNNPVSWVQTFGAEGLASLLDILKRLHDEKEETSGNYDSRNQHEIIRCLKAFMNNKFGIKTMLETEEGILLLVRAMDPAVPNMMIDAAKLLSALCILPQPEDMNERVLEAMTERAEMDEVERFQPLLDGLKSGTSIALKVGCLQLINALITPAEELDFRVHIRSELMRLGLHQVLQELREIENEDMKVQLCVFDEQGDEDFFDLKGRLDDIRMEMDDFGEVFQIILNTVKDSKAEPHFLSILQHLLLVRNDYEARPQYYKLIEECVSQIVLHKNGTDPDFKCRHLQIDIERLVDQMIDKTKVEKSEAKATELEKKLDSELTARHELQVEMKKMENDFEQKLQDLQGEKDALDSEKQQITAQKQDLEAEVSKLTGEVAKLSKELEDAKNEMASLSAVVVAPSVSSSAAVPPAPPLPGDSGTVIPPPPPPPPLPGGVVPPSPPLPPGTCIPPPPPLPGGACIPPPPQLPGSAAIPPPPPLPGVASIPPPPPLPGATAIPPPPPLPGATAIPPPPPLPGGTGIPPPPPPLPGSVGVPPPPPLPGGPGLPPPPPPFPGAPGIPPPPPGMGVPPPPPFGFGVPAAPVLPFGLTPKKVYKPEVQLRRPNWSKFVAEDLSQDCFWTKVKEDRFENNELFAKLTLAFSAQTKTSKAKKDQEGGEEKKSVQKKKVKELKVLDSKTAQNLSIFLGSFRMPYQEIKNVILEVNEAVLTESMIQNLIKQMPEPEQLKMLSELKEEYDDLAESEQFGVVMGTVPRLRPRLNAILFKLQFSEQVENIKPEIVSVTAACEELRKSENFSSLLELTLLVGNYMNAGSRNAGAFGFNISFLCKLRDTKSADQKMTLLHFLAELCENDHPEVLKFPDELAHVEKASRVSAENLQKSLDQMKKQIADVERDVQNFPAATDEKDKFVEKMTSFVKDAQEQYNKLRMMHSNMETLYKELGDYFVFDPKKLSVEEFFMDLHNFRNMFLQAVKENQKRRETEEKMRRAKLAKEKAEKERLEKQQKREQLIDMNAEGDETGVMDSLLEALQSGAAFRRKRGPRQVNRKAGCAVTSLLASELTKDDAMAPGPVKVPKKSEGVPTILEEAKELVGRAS
mDia1ΔN3 fused to GAL4 DNA-binding domain: residues 543-1192 of O08808
UniProt O35129: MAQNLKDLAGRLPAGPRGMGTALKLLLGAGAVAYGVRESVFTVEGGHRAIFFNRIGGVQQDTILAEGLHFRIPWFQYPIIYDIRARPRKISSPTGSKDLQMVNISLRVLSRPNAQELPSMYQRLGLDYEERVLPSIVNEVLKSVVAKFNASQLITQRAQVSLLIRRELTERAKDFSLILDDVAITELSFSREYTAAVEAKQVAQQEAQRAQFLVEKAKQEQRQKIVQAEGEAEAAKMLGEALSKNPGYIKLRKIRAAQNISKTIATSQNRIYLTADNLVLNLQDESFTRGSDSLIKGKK
flag-tagged Phb2-Amino (89-180 aa): residues 89-180 of O35129
flag-tagged Phb2 120-232 (120-232 aa): residues 120-232 of O35129
flag-tagged Phb2-Central (140-244 aa): residues 140-244 of O35129
flag-tagged Phb2-Carboxy (180-299 aa): residues 180-299 of O35129
UniProt Q60823: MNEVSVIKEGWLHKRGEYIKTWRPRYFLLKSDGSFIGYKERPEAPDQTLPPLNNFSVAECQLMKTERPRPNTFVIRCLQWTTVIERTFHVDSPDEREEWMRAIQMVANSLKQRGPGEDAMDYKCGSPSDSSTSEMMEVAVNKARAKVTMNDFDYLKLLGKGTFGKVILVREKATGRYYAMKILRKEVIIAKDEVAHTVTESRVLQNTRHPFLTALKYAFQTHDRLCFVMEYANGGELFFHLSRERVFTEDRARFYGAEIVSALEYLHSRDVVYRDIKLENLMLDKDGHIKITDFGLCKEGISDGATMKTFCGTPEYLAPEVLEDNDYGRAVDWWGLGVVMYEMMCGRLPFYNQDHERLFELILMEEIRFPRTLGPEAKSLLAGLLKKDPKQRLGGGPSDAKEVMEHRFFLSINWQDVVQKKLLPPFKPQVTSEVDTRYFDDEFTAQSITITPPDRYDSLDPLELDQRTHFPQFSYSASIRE
UniProt P10085: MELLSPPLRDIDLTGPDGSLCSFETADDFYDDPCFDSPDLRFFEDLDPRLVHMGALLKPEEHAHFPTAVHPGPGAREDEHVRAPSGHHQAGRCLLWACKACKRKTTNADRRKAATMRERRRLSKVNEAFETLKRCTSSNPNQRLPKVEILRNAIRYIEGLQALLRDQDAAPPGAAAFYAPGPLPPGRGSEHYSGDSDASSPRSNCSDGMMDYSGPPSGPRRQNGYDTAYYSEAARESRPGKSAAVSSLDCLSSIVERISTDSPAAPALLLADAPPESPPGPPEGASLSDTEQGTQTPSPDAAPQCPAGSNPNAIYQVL
UniProt Q02248: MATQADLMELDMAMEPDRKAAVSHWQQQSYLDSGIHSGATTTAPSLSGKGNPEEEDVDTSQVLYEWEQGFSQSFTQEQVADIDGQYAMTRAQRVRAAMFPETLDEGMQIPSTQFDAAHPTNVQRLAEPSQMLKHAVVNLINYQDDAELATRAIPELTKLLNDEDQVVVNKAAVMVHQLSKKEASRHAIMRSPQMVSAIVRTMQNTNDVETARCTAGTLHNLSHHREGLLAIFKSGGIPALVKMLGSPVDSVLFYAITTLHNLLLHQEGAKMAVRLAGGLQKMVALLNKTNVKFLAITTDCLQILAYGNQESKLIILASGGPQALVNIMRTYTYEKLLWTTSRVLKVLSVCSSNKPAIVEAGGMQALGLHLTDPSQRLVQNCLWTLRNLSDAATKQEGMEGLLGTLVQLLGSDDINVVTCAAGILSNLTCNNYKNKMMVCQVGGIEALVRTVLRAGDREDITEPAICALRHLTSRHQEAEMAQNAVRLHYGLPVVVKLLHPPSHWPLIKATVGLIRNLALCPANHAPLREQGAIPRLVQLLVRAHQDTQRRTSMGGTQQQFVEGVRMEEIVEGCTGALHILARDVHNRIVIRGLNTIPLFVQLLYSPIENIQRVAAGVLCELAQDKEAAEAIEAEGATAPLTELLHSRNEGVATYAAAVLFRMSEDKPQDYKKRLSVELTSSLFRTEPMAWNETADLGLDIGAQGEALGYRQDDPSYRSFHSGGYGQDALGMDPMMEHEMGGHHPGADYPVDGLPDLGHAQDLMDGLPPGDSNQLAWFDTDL

- binding [1]: binds
Molecule: Akt2, endogenous (from UniProt Q60823 1-481)

- binding [2]: binds
- binding [3]: binds
- binding [4]: binds
- binding [5]: binds
- binding [6]: no binding
Molecule: GFP-tagged mDia1ΔN3 (from UniProt O08808 543-1192) (domain or fragment)

- binding [1]: binds
Molecule: MyoD, endogenous (from UniProt P10085 1-318)
- binding [7]: no binding (condition: in proliferating myoblasts (GM))

- binding [8]: binds
Molecule: Phb2-AD, partial Prohibitin2 clone recovered in the yeast two-hybrid screen (from UniProt O35129 89-299) (domain or fragment)

- binding [9]: binds
- binding [1]: binds
Molecule: Prohibitin2 (Phb2), endogenous (from UniProt O35129 1-299)
- binding [7]: no binding (condition: in proliferating myoblasts (GM))

- binding [1]: binds
Molecule: active β-Catenin, endogenous (from UniProt Q02248 1-781)

- binding [10]: binds
Molecule: mammalian Diaphanous1 (mDia1), endogenous (from UniProt O08808 1-1255)
- binding [11]: no binding (condition: in proliferating myoblasts (GM))

- binding [1]: binds
Molecule: pAkt2 Ser474, endogenous (from UniProt Q60823 1-481)

- binding [12]: binds
B1: Prohibitin1 (Phb1), endogenous (protein, UniProt P67778 1-272)
chain: MAAKVFESIGKFGLALAVAGGVVNSALYNVDAGHRAVIFDRFRGVQDIVVGEGTHFLIPWVQKPIIFDCRSRPRNVPVITGSKDLQNVNITLRILFRPVASQLPRIYTSIGEDYDERVLPSITTEILKSVVARFDAGELITQRELVSRQVSDDLTERAATFGLILDDVSLTHLTFGKEFTEAVEAKQVAQQEAERARFVVEKAEQQKKAAIISAEGDSKAAELIANSLATAGDGLIELRKLEAAEDIAYQLSRSRNITYLPAGQSVLLQLPQ
